# About 4,000 (1.1%) of roughly 380,000 compounds were called active. The inconclusive results got no clear call from the source; some entries with a clear call stand among them for comparison. The call rests on the fitted dose curve; in most records, active means well fitted activation curve with a large enough effect; inconclusive means small, poorly fitted or top-dose-only effect; inactive means no such curve, though single readings can be large or run the other way. A potency beside an inconclusive call is a rough fit, not a confirmed value. More than one record can exist for a structure, and the calls need not agree.
# Assay: qHTS Assay to Identify Small Molecule Activators of BRCA1 Expression; further: nearly all actives have a fitted effect of over 80% in size
# Conditions: MCF7-BRCA1-FFLuc reporter, luminescence, 48 h; activation: at 46.1 µM (top of the series), scaled: vehicle 0%, 10 µM genistein 100% unless noted
# How it was run: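 Using MCF7 cells harboring a BRCA1 firefly luciferase reporter, plated 2 h before compound pinning, the screen measured luminescence after 48 h incubation. Responses were normalized to DMSO and 10 microM genistein, then fitted for concentration-effect.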
# Potency means the concentration at half of the fitted maximal effect; tags describe the fitted curve by direction and shape.
Structure (SMILES),Potency,activation
CCC(C)NC(=O)c1cc(-c2ccc3c(c2)OCO3)on1 (configuration not stated),"inconclusive: 1.26 µM [activator, partial curve, poor fit]",–
CCCCCN1C=CC(=C2C(=O)c3ccccc3C2=O)C=C1,–,inconclusive: -85.2% [activator]
Cc1cc(=O)oc2cc(NC(=O)c3cc(F)ccc3F)ccc12,"inconclusive: 2.24 µM [activator, full curve, poor fit]",–
O=C(NCc1ccco1)c1sc2cccc(F)c2c1Cl,–,inactive: 60.2%
CCCCOC(=O)CSc1n[nH]c(=O)[nH]c1=O,–,inactive: 10.6%
O=C(Cn1nc2ccccc2n1)N/N=C/c1cc([N+](=O)[O-])ccc1O,–,inactive: -66%
CC(=O)Nc1cc2nn(-c3ccccc3)nc2cc1C,–,inconclusive: 59% [activator]
CC1CCN(C(=O)COC(=O)c2cccs2)CC1,"inconclusive: 11.2 µM [activator, partial curve, poor fit]",–
CCOC(=O)C1C(=O)C=C(Nc2ccccc2F)CC1c1ccccc1 (configuration not stated),"inconclusive: 11.2 µM [activator, partial curve, poor fit]",–
Cc1ccc(OCc2nc(-c3ccccn3)no2)cc1,"inconclusive: 0.794 µM [activator, full curve, poor fit]",–
Oc1ccc(Cl)cc1CNc1ccccn1,–,inactive: 19.2%
Cc1c(Cl)cccc1N/C(SCC(=O)N1CCCCCC1)=C(/C#N)c1nc2ccccc2s1,–,inactive: -89.1%
Cn1cc(Br)c(C(=O)N/N=C/c2cc3c(cc2Cl)OCO3)n1,"inconclusive: 12.6 µM [activator, single point]",–
CC1=CC(C)(C)N=C(Nc2ccc(C)cc2)S1,active: 12.6 µM,–
O=C(COc1ccc2c3c(c(=O)oc2c1)CCC3)N1CCCCC1,"inconclusive: 10 µM [activator, partial curve, poor fit]",–
O=C(N/N=C/c1ccccc1)NC1CCCCC1,"inconclusive: 12.6 µM [activator, partial curve, poor fit]",–
COc1ccc(S(=O)(=O)NCCc2nnc3ccc(SCC(=O)Nc4nc(C)cs4)nn23)cc1,–,inactive: 54%
COc1cc(OC)cc(C(=O)O/N=C(\N)c2ccccn2)c1,"inconclusive: 5.62 µM [activator, full curve, poor fit]",–
NC(=O)NCCc1ccccc1,–,inactive: 0.639%
Fc1ccccc1CSc1nnc(-c2ccccc2)o1,active: 3.98 µM,–
O=C(Nc1cc2c(cc1C(=O)c1ccccc1Br)OCCO2)c1cccc(Cl)c1,–,inactive: 15.4%
COc1ccc(C(=O)Nc2ccc3ccccc3n2)cc1OC,"inconclusive: 8.91 µM [activator, partial curve, poor fit]",–
Cc1ccsc1C(=O)OCC(=O)c1ccc[nH]1,active: 5.62 µM,–
Cc1ccc(NC2CC(=O)N(c3ccc(C)cc3)C2=O)cc1 (configuration not stated),–,inactive: 3.94%
CC(=O)c1cnc2nc(SCc3cccc(C)c3)nn2c1C,"inconclusive: 35.5 µM [activator, single point]",–
CCc1nc2ccc(C(=O)N(C)CCN(C)C)cn2c1N(C)Cc1cc2ccccc2s1,–,inactive: -11.3%

Structure (SMILES),Potency,activation
Cc1ccccc1C(=O)NCCCc1ccccc1,"inconclusive: 20 µM [activator, partial curve, poor fit]",–
CCCSc1nc(=O)n2cc(C)ccc2n1,"inconclusive: 10 µM [activator, partial curve, poor fit]",–
COc1ccc(CC(=O)Nc2cc(C)ccn2)cc1,"inconclusive: 20 µM [activator, single point]",–
Cc1csc(NC(=S)NC(=O)c2ccccc2)n1,–,inactive: 30.8%
Cc1c(C)n(CCc2ccccc2)c2ncnc(NCCCO)c12,"inconclusive: 1.58 µM [activator, full curve, poor fit]",–
CCc1ccc(C(=O)NNc2ccccc2F)cc1,"inconclusive: 8.91 µM [activator, partial curve, poor fit]",–
O=C(Nc1nc(-c2ccccc2)cs1)c1cccs1,"inconclusive: 2 µM [activator, partial curve, poor fit]",–
N#Cc1ccc(NC(=S)/N=C(\N)c2ccccc2)cc1,"inconclusive: 8.91 µM [activator, partial curve, poor fit]",–
C=CC(C)N1C(=O)S/C(=C\c2ccc(N3CCOCC3)cc2C)C1=O (configuration not stated),–,inactive: 91.5%
CC(=O)Oc1c(C)cc(Cl)cc1C(=O)Nc1ccc([N+](=O)[O-])cc1Cl,–,inactive: 25.1%
Cc1ccsc1C(=O)Nc1nc2ccccc2[nH]1,"inconclusive: 0.631 µM [activator, full curve, poor fit]",–
O=c1cc(Cl)[nH]c(=O)n1CCNc1ncc(C(F)(F)F)cc1Cl,"inconclusive: 14.1 µM [activator, partial curve, poor fit]",–
CSc1ccccc1OCc1cc(C(=O)N2CCSCC2)no1,active: 4.47 µM,–
Oc1cccc(/C=N\Nc2nncc(-c3ccccc3)n2)c1,"inconclusive: 25.1 µM [activator, single point]",–
CCOCCCNC(=O)c1ccc2nc(-c3ccc(OC)c(OC)c3)c(-c3ccc(OC)c(OC)c3)nc2c1,–,inactive: -27.2%
O=C(Nc1ccccc1)c1ccccc1Br,"inconclusive: 10 µM [activator, partial curve, poor fit]",–
O=C(Nc1nc(-c2nc3ccccc3s2)cs1)c1ccco1,"inconclusive: 35.5 µM [activator, single point]",–
CC(=O)NN1C(=O)c2ccccc2NC1c1ccccc1O (configuration not stated),–,inactive: -1.7%
CCOc1ccc(N/C=C/C(=O)c2ccc(OC)cc2)cc1,"inconclusive: 17.8 µM [activator, partial curve, poor fit]",–
O=C(CN1CCOCC1)Nc1ccc(-c2nc3ccccc3[nH]2)cc1,active: 11.2 µM,–
Cc1ccc2nc(NC(=O)c3ccc4c(c3)OCO4)sc2c1,"inconclusive: 1.58 µM [activator, partial curve, poor fit]",–
COc1ccc(C(=O)Nc2ccc(OC)c(OC)c2)cc1,"inconclusive: 15.8 µM [activator, partial curve, poor fit]",–
Cc1ccc(C(=O)Oc2cc(C)n(C)c(=O)c2)cc1,–,inactive: -22.3%
c1ccc(SCc2cc(-c3ccccc3)no2)cc1,"inconclusive: 10 µM [activator, partial curve, poor fit]",–
COCCN(Cc1cc2cc(C)ccc2nc1Cl)C(=O)Nc1ccccc1OC,–,inactive: -31%
c1ccc(Sc2cnc3ccccc3n2)cc1,"inconclusive: 20 µM [activator, single point]",–

Structure (SMILES),Potency,activation
O=C(Nc1cccc(Cl)c1)Nc1ccc2nccnc2c1,"inconclusive: 4.47 µM [activator, full curve, poor fit]",–
c1ccc2c(c1)CCN(c1ncnc3nc[nH]c13)C2,active: 3.55 µM,–
C=CCN(C(=O)CSc1nnnn1C)c1nc(-c2ccccc2)cs1,"inconclusive: 12.6 µM [activator, partial curve, poor fit]",–
CCOc1ccc(C(=O)Nc2cc(C)on2)cc1,"inconclusive: 1.58 µM [activator, partial curve, poor fit]",–
O=C(COc1ccccc1Br)NCc1ccccn1,active: 11.2 µM,–
O=C(CCl)Nc1cc(S(=O)(=O)N2CCCCCC2)ccc1Cl,–,inactive: -84.3%
O=C(Nc1nccs1)c1ccc(COc2ccccc2)o1,active: 5.62 µM,–
Cc1c(C(=O)NCC(C)C)sc2nc(-c3ccc(F)cc3)cn12,"inconclusive: 3.55 µM [activator, full curve, poor fit]",–
NS(=O)(=O)c1ccc(NC(=S)NCc2ccco2)cc1,–,inactive: -1.31%
Cc1ccc(C(=O)ONc2ccc(N=NC(=O)c3ccccc3O)cc2)cc1,–,inactive: 1.25%
CN(C(=O)COC(=O)c1ccc(Cl)cc1N)C1CCCCC1,"inconclusive: 20 µM [activator, single point]",–
CCC1CCCCN1C(=O)CCS(=O)(=O)c1cc2c(cc1C)NC(=O)CO2 (configuration not stated),–,inactive: -1.39%
O=C(NCCC1=CCCCC1)c1cnc2n(c1=O)CCS2,active: 8.91 µM,–
O=C(Nc1ccc2c(c1)nc1n2CCOC1)C1CCCCC1,"inconclusive: 11.2 µM [activator, partial curve, poor fit]",–
COc1ccccc1NC(=O)c1cc2n(n1)C(C(F)(F)F)CC(c1ccc3c(c1)OCO3)N2 (configuration not stated),–,inactive: -7.32%
OC(c1cc(-c2cccc(Cl)c2)nc2ccccc12)C1CCCCN1 (configuration not stated),–,inactive: -105%
NS(=O)(=O)c1ccccc1NC(=O)c1c(O)c2ccccc2[nH]c1=O,"inconclusive: 0.631 µM [activator, full curve, poor fit]",–
O=C(Nc1nc(-c2ccccn2)cs1)C12CC3CC(CC(O)(C3)C1)C2,"inconclusive: 2.24 µM [activator, full curve, poor fit]",–
O=C(Nc1ccc2c(c1)OCCO2)c1ccccc1Cl,"inconclusive: 1.78 µM [activator, full curve, poor fit]",–
COc1ccc(C)cc1NC(=O)C(OC(=O)c1ccc([N+](=O)[O-])o1)c1ccccc1 (configuration not stated),–,inactive: -23.7%
COCCn1c(C)cc(C(=O)COC(=O)c2n[nH]c3ccccc23)c1C,–,inconclusive: -63.8% [activator]
COc1ccc2c(c1)CC/C(=C\C=C\c1ccccc1)C2=O,"inconclusive: 12.6 µM [activator, single point]",–
Cc1nc2ccc(C(=O)OCc3ccccc3Br)cc2nc1C,active: 7.08 µM,–
COc1ccc2c(c1)O[C@H](c1ccc3c(c1)OCO3)[C@@H](O)C2=O,"inconclusive: 22.4 µM [activator, single point]",–
Cn1cc(Br)c(C(=O)Nc2sc3c(c2C(N)=O)CCCC3)n1,"inconclusive: 14.1 µM [activator, single point]",–
